# According to PubChem BioAssay AID686978 (National Center for Advancing Translational Sciences (NCATS), 2013):
# Several values for one entry are separate records, joined by “and”; a condition that tells them apart may be missing. Equal values may be shown once. Out of some 420,000 compounds screened, about 64,000 (15%) were called active. Inconclusive means that the source gave no clear call. Such entries were picked first, then a sample of the others. Calls come from the whole dose curve; as a rule, active = well fitted inhibition curve with a large enough effect; inconclusive = small, poorly fitted or top-dose-only effect; inactive = flat fitted curve, though single readings scatter. A potency beside an inconclusive call is a rough fit, not a confirmed value.
# Assay: qHTS for Inhibitors of human tyrosyl-DNA phosphodiesterase 1 (TDP1): qHTS in cells in absence of CPT; note: nearly all actives have a fitted effect of over 55% in size
# Conditions: DT40 Tdp1-/- hTDP1 cells, no CPT, ATP luminescence, 48 h; activity change, negative = growth inhibition: at 46.2 µM (top of the series) unless noted
# Procedure, shortened: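 No-CPT arm: Tdp1-/-;hTDP1 DT40 cells (400/well) plus compounds, incubated ≥48 hr at 37 °C. Readout CellTiter-Glo luminescence.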
# % is set by controls: 0 for no effect and ±100 for the full control effect; potency is the fitted concentration of half-maximal effect; tags give direction and shape of the fitted curve.
SMILES,Potency,"activity change, negative = growth inhibition"
CC(=O)c1sc(NCc2ccccc2)nc1C,"inconclusive: 0.58 µM [inhibitor, full curve, poor fit]",–
CC(C)(C)c1nnc(NC(=S)Nc2ccccc2)s1,"inconclusive: 25.9 µM [inhibitor, single point]",–
CCN(CC)CCNC(=O)CSc1c2c(nc3cc(Cl)ccc13)CCCC2,"inconclusive: 25.9 µM [inhibitor, single point]",–
O=C(NC1CCCCC1)c1ccccc1NC(=O)C1CC(=O)N(c2ccccc2)C1 (centres undefined),–,inactive: -11.7%
Clc1ccc(-c2nnc(CSc3nnc(-c4cccs4)o3)o2)cc1,–,inactive: -0.904%
CCOC(=O)c1cnc2ccc(C)cc2c1N(C)Cc1ccccc1,"inconclusive: 16.4 µM [inhibitor, single point]",–
Cc1ccc(CN2CCSc3ccc(C(=O)N4CCN(c5ncccn5)CC4)cc32)cc1,active: 16.4 µM,–
COc1ccc(NC(=S)NCc2ccco2)cc1,–,inactive: -24.2%
CCC(=O)Nc1cc2c(C)cc(=O)oc2cc1C,–,inactive: 2.36%
O=C(CSc1nnc(-c2ccccc2)n1C1CCCCC1)Nc1ccc(S(=O)(=O)Nc2ccccn2)cc1,"inconclusive: 23.1 µM [inhibitor, single point]",–
CCc1ccc(NC(=S)N2CCC(NC(=O)c3ccccc3OC)CC2)cc1,"inconclusive: 25.9 µM [inhibitor, single point]",–
COc1ccc(-c2cc(C(=O)NCc3ccco3)c3ccccc3n2)cc1,"inconclusive: 23.1 µM [inhibitor, single point]",–
O=C1N(c2ccccc2)C2CS(=O)(=O)CC2N1c1ccc(Br)cc1 (centres undefined),–,inconclusive: -40.1% [inhibitor]
COc1ccc(CN2CCN(C(=O)C3CCC(CNS(=O)(=O)c4ccccc4)CC3)CC2)c(OC)c1OC (centres undefined),"inconclusive: 16.4 µM [inhibitor, single point]",–
CN(C)c1ccc(-c2ccnc3c2CC(C)(C(=O)Nc2ccc(Cl)cc2)O3)cc1 (centres undefined),"inconclusive: 16.4 µM [inhibitor, single point]",–
Cc1cccc(C(=O)NC2CCN(CC(=O)NCc3ccccc3F)CC2)c1,–,inactive: -12.7%
CN(C)CCCNC(=O)c1cc(S(=O)(=O)N2CCOCC2)ccc1F,–,inactive: -4.08%
CC(NC(=O)CSc1ccccc1)c1ccccc1 (centres undefined),–,inactive: 2.58%
Cc1ccc(N(CC(=O)NC(C)(C)C)C(=O)CNC(=O)c2cccs2)cc1,–,inconclusive: -31.7% [inhibitor]
CC(=O)OC(C)(C)/C=C/C(=O)[C@](C)(O)C1[C@H](O)C[C@@]2(C)C3CC=C4C(C=C(O[C@@H]5O[C@H](CO)[C@@H](O)[C@H](O)[C@H]5O)C(=O)C4(C)C)[C@]3(C)C(=O)C[C@]12C (some centres undefined),active: 1.84 µM,–
Nc1ccc(C(=O)Nc2ccc3nc(-c4ccncc4)[nH]c3c2)cc1,"inconclusive: 29.1 µM [inhibitor, single point]",–
C/C(=N\NC(=O)c1ccc(CN(C)S(=O)(=O)c2ccc(C)cc2)cc1)c1ccc(OC(F)F)cc1,active: 1.46 µM,–
CC(=O)c1cc(-c2ccc(F)cc2)n(CCC(=O)Nc2cccnc2)c1C,–,inactive: -17%
O=C(CCC(=O)OCC(=O)c1ccc(Cl)cc1)Nc1ccc(Oc2ccccc2)cc1,–,inactive: -9.62%
COc1ccc(OC)c(NC(=O)C2CCC(CNc3c(N4CCC(C)CC4)c(=O)c3=O)CC2)c1 (centres undefined),"inconclusive: 29.1 µM [inhibitor, single point]",–

SMILES,Potency,"activity change, negative = growth inhibition"
Cc1cc(Oc2ccc(Br)cc2)nc(SCC(=O)c2ccccc2)n1,active: 20.6 µM,–
CCCCc1ccc(S(=O)(=O)NC(=O)C2(C)CCN2C(=O)CCc2cccs2)cc1 (centres undefined),–,inactive: -14%
Cc1ccc(S(=O)(=O)Cc2cc(F)c([N+](=O)[O-])cc2[N+](=O)[O-])cc1,active: 2.91 µM,–
Cc1ccc(CNC(=O)COC(=O)c2ccc(S(=O)(=O)NCc3ccco3)cc2)cc1,–,inactive: 9.23%
C[C@H](CO)N1C[C@H](C)[C@@H](CN(C)Cc2ccc3c(c2)OCO3)Oc2cc(Br)ccc2S1(=O)=O,active: 7.31 µM,–
CCN(Cc1ccccc1)C(=O)C(=O)c1cn(CC(=O)N2CCCC2)c2ccccc12,–,inactive: 13.3%
O=C(/C=C/Nc1ccc(Nc2ccccc2)cc1)c1cccs1,"inconclusive: 20.6 µM [inhibitor, partial curve]",–
CNc1ccccc1C(=O)OC(C)C(=O)Nc1ccc(Cl)cn1 (centres undefined),"inconclusive: 20.6 µM [inhibitor, single point]",–
CN(C)c1cccc(NC(=O)c2cccc3c(-c4ccc(F)c(F)c4)coc23)c1,active: 20.6 µM,–
COc1ccccc1N(Cc1cc2ccc(C)cc2[nH]c1=O)C(C)=O,–,inactive: -2.36%
CC(NC(=S)NCc1ccc(F)cc1)C12CC3CC(CC(C3)C1)C2 (centres undefined),active: 14.6 µM,–
Cc1ccc(NC(=O)CSc2nc(=O)n(CCCN3CCOCC3)c3c2CCCC3)c(C)c1,–,inactive: -7.36%
CC(=O)Nc1ccc(OC(=O)c2c(-c3ccccc3Cl)noc2C)cc1,"inconclusive: 32.6 µM [inhibitor, partial curve, poor fit]",–
CCc1ccc2occ(CC(=O)Nc3c(C(=O)Nc4ccc(C)cc4)oc4ccccc34)c2c1,–,inactive: -21.9%
COC(=O)c1c(SCC(=O)Nc2cc(C)cc(C)c2)[nH]c2ccccc2c1=O,"inconclusive: 25.9 µM [inhibitor, single point]",–
CC(C)=CCN1CCN(Cc2c[nH]c3ccccc23)CC1CCO (centres undefined),"inconclusive: 10.3 µM [inhibitor, partial curve]",–
Cc1ccc(C(=O)C(C)Oc2cccc(NC(=O)c3ccco3)c2)cc1 (centres undefined),active: 25.9 µM,–
CCOc1ccc(C(C)(C)C)cc1S(=O)(=O)n1nc(C)cc1C,active: 11.2 µM,–
Cc1ccccc1Cn1c([N+](=O)[O-])cnc1C,–,inactive: -12.2%
CC1Cc2cc(S(=O)(=O)NCCC(=O)NCc3ccc(F)cc3)ccc2N1C(=O)C1CC1 (centres undefined),"inconclusive: 16.4 µM [inhibitor, single point]",–
Cc1c(N=C2NN=C(c3ccc(Cl)cc3)CS2)c(=O)n(-c2ccccc2)n1C,"inconclusive: 20.6 µM [inhibitor, single point]",–
COc1ccc(CN(C(=O)/C=C/C(=O)c2ccc(OC)cc2O)C(C(=O)NC2CCCCC2)c2ccncc2)cc1 (centres undefined),"inconclusive: 23.1 µM [inhibitor, single point]",–
O=C(CSc1nc2ccccc2[nH]1)N1CCN(c2ccccc2)CC1,–,inactive: -6.74%
O=C(Cc1ccccc1)NCC(=O)Nc1cc(Cl)ccc1Cl,"inconclusive: 25.9 µM [inhibitor, single point]",–
Cn1cc(-c2csc(C(O)c3ccc(F)cc3)n2)cn1 (centres undefined),"inconclusive: 14.6 µM [inhibitor, partial curve]",–

SMILES,Potency,"activity change, negative = growth inhibition"
O=[N+]([O-])c1ccc(Oc2ccc(F)cc2Br)c2ccncc12,active: 23.1 µM,–
O=C(NCc1cccc(Cl)c1)c1cc(COc2ccc3ncccc3c2)on1,active: 20.6 µM,–
Cc1ccc(C(=O)n2nc(C)c(S(=O)(=O)N3CCOCC3)c2C)cc1,"inconclusive: 29.1 µM [inhibitor, single point]",–
N#Cc1ccc(Nc2nc(-c3ccccc3)cs2)cc1,"inconclusive: 20.6 µM [inhibitor, single point]",–
COc1cccc(Cn2c(=O)c(-c3cc(F)cc(F)c3)nc3cncnc32)c1,–,inactive: -9.75%
Cc1cc2nc(-c3ccc(SCC(=O)Nc4ccc5c(c4)OCCO5)nc3)[nH]c2cc1C,active: 23.1 µM,–
Cc1nc(CS(=O)(=O)c2ccccc2)cc(N2CCN(c3ccccc3F)CC2)n1,–,inconclusive: -30.8% [inhibitor]
Cc1ccc(NC(=O)CO/N=C(\N)c2nonc2N)cc1C,–,inactive: 15.1%
COc1ccc(C(=O)CNc2ccc(C)cc2C)cc1,–,inconclusive: -30.1% [inhibitor]
CCCNc1ncnc2onc(C)c12,"inconclusive: 29.1 µM [inhibitor, single point] and inconclusive: 14.6 µM [inhibitor, partial curve]",–
O=C(C1CCCN(S(=O)(=O)c2cccc3nsnc23)C1)N1CCc2ccccc21 (centres undefined),active: 23.1 µM,–
CN=C1N[C@H](c2ccccc2)N(c2ccccc2)S1,"inconclusive: 33.5 µM [inhibitor, single point]",–
CCn1c(C)nc2cc(C(=O)N/N=C/c3ccc(OC)c(O)c3)ccc21,–,inactive: 8.97%
CCOC(=O)C1CCN(C(=O)C2(NC(=O)NC3CCCCC3)CCCCC2)CC1,–,inactive: -1.66%
O=C(c1ccccc1)c1ccc(OCC(O)CNCc2ccc(F)cc2)cc1 (centres undefined),–,inactive: -25.1%
COc1ccc(-c2nc(CN3CCN(Cc4cccc(Cl)c4)CC3)c(C)o2)cc1,"inconclusive: 23.1 µM [inhibitor, single point]",–
COC(=O)c1cn(C(=O)c2ccc(C)c(C)c2)c2ccccc12,active: 20.6 µM,–
O=C(c1cccs1)N1N=C(c2ccccc2)CC1c1ccccc1O (centres undefined),"inconclusive: 29.1 µM [inhibitor, single point]",–
CCCOc1ccc(CCC(=O)N/N=C/c2ccncc2)cc1,"inconclusive: 18.4 µM [inhibitor, single point]",–
O=C(CSc1nnc(CNC(=O)c2cccs2)o1)Nc1ccc(F)cc1F,–,inactive: 18.7%
COC(=O)c1cccc(Nc2nc(-c3ccncc3)nc3ccccc23)c1,"inconclusive: 2.06 µM [inhibitor, full curve]",–
Cc1cc(S(=O)(=O)Nc2ccc(-c3ccc(N4CCCCC4)nn3)cc2)c(C)cc1Cl,"inconclusive: 29.1 µM [inhibitor, single point]",–
COc1cccc(-c2nn(C)c3sc(C(=O)NCCc4ccc(Cl)cc4)cc23)c1,"inconclusive: 23.1 µM [inhibitor, single point]",–
COc1ccc(/C=C(/C(=O)Nc2ccccc2C(=O)NC(C)C)c2ccccc2)cc1,"inconclusive: 18.4 µM [inhibitor, single point]",–
